Laboratory results published in the supplement of paper PMC7125110.
Variants at the background level are over-represented here.

B1: glmS ribozyme (parent)
chain: AUAAAAGCGCCAGAACUACAGAAAUGUAGUUGACGAGGAGGAGGUUUAUCGAAUUUUCGGCGGAUGCCUCCAAA

Key:
Conditions in all cases: with glucosamine-6-phosphate
glucosamine-6-phosphate [1] = variants of: B1; experiment: kcat; higher = faster cleavage; RNA array
In short: (§1)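 Sequenced MiSeq chips were the platform: E. coli RNA polymerase transcribed barcoded ribozyme variants on them in situ, and a hybridised Cy3 probe tracked these at 37 °C. After glucosamine-6-phosphate (40 μM to 10 mM) in HEPES/KCl/Mg(OAc)2 buffer was flowed in, tiles were imaged over ~14 h. Signals normalised to baseline and to non-cleaving reference variants were reduced to per-tile medians and fit to one- or two-exponential decays to obtain kobs. kcat and KM were derived through weighted Michaelis–Menten fits across concentrations.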

glucosamine-6-phosphate [2] = variants of: B1; experiment: self-cleavage kobs at 160 uM GlcN6P; higher = faster cleavage; RNA array
In short: as §1

glucosamine-6-phosphate [3] = variants of: B1; experiment: self-cleavage kobs at 2500 uM GlcN6P; higher = faster cleavage; RNA array
In short: as §1

glucosamine-6-phosphate [4] = variants of: B1; experiment: self-cleavage kobs at 10000 uM GlcN6P; higher = faster cleavage; RNA array
In short: as §1

glucosamine-6-phosphate [5] = variants of: B1; experiment: self-cleavage kobs at 40 uM GlcN6P; higher = faster cleavage; RNA array
In short: as §1

glucosamine-6-phosphate [6] = variants of: B1; experiment: self-cleavage kobs at 640 uM GlcN6P; higher = faster cleavage; RNA array
In short: as §1

| Variant | kcat (glucosamine-6-phosphate [1]) [s⁻¹] | self-cleavage kobs at 160 uM GlcN6P (glucosamine-6-phosphate [2]) [s⁻¹] | self-cleavage kobs at 2500 uM GlcN6P (glucosamine-6-phosphate [3]) [s⁻¹] | self-cleavage kobs at 10000 uM GlcN6P (glucosamine-6-phosphate [4]) [s⁻¹] | self-cleavage kobs at 40 uM GlcN6P (glucosamine-6-phosphate [5]) [s⁻¹] | self-cleavage kobs at 640 uM GlcN6P (glucosamine-6-phosphate [6]) [s⁻¹] |
| --- | --- | --- | --- | --- | --- | --- |
| C11A C34A | < 1e-05 | < 1e-05 | < 1e-05 | < 1e-05 |  |  |
| C11A C50U | < 1e-05 |  |  |  |  |  |
| C11A G13C | < 1e-05 |  |  |  | < 1e-05 |  |
| C11A U49G U57G | < 1e-05 |  |  | < 1e-05 |  |  |
| C11G G29C | < 1e-05 |  |  | < 1e-05 |  |  |
| C11U C61A | < 1e-05 |  |  |  |  |  |
| C11U C61G | < 1e-05 |  |  |  |  |  |
| C11U G13C | < 1e-05 | < 1e-05 |  |  |  |  |
| A12C A36U | < 1e-05 |  |  |  | < 1e-05 |  |
| A12G A33C | < 1e-05 |  |  |  |  |  |
| A12U A36C | < 1e-05 | < 1e-05 |  |  |  |  |
| A12U C61A | < 1e-05 |  |  |  |  |  |
| G13A C61G | < 1e-05 |  | < 1e-05 |  |  | < 1e-05 |
| G13A G62C | < 1e-05 | < 1e-05 | < 1e-05 | < 1e-05 | < 1e-05 | < 1e-05 |
| G13C A39U G40U | < 1e-05 |  |  |  |  | < 1e-05 |
| G13C G37U | < 1e-05 |  |  |  | < 1e-05 |  |
| G13U A48G | < 1e-05 |  |  | < 1e-05 | < 1e-05 | < 1e-05 |
| G13U G60U | < 1e-05 |  |  | < 1e-05 |  |  |
| A14C G38A | < 1e-05 | < 1e-05 |  |  | < 1e-05 |  |
| A14C U49C | < 1e-05 | < 1e-05 |  | < 1e-05 | < 1e-05 | < 1e-05 |
| A14G G38C | < 1e-05 | < 1e-05 |  |  |  |  |
| A14U C61U | < 1e-05 |  |  |  | < 1e-05 |  |
| A14U G38U | < 1e-05 |  |  |  |  | < 1e-05 |
| A14U G63C | < 1e-05 |  | < 1e-05 | < 1e-05 |  |  |
| A15C C50A | < 1e-05 |  |  |  |  |  |
| A15C C50U | < 1e-05 | < 1e-05 |  |  |  |  |

| Variant | kcat (glucosamine-6-phosphate [1]) [s⁻¹] | self-cleavage kobs at 160 uM GlcN6P (glucosamine-6-phosphate [2]) [s⁻¹] | self-cleavage kobs at 2500 uM GlcN6P (glucosamine-6-phosphate [3]) [s⁻¹] | self-cleavage kobs at 10000 uM GlcN6P (glucosamine-6-phosphate [4]) [s⁻¹] | self-cleavage kobs at 40 uM GlcN6P (glucosamine-6-phosphate [5]) [s⁻¹] | self-cleavage kobs at 640 uM GlcN6P (glucosamine-6-phosphate [6]) [s⁻¹] |
| --- | --- | --- | --- | --- | --- | --- |
| A15U G43A | < 1e-05 |  |  |  |  |  |
| A15U G60A | < 1e-05 |  |  |  | < 1e-05 |  |
| A15U U46G G51U | < 1e-05 |  | < 1e-05 |  | < 1e-05 |  |
| C16A A64C | < 1e-05 |  |  |  | < 1e-05 |  |
| C16U G51U | < 1e-05 |  |  | < 1e-05 |  | < 1e-05 |
| G29A A64U | < 1e-05 |  | < 1e-05 |  | < 1e-05 | < 1e-05 |
| G29A C50U | < 1e-05 |  |  |  |  |  |
| G29A C61A | < 1e-05 |  |  |  |  |  |
| G29A G38A | < 1e-05 |  |  |  |  | < 1e-05 |
| G29A G38C C70U | < 1e-05 | < 1e-05 |  |  |  |  |
| G29A G59C | < 1e-05 |  | < 1e-05 |  |  |  |
| G29A U30A U69A | < 1e-05 |  |  | < 1e-05 |  |  |
| G29C A36C G43U | < 1e-05 | < 1e-05 |  | < 1e-05 |  | < 1e-05 |
| G29C G59A | < 1e-05 | < 1e-05 |  |  | < 1e-05 |  |
| G29U A48C C50U | < 1e-05 | < 1e-05 | < 1e-05 | < 1e-05 |  |  |
| G29U C68A | < 1e-05 |  |  |  | < 1e-05 |  |
| G29U G38U | < 1e-05 |  | < 1e-05 |  |  |  |
| G29U G60C | < 1e-05 |  |  |  |  | < 1e-05 |
| U31A G51U | < 1e-05 | < 1e-05 |  |  |  | < 1e-05 |
| U31A G60A | < 1e-05 |  |  |  |  |  |
| U31C A36G | < 1e-05 |  |  | < 1e-05 | < 1e-05 |  |
| U31C G37C A48G U56A | < 1e-05 |  | < 1e-05 |  |  | < 1e-05 |
| U31C G38C | < 1e-05 | < 1e-05 |  |  | < 1e-05 |  |
| U31C G43U | < 1e-05 |  |  |  |  | < 1e-05 |
| U31G G51C | < 1e-05 |  |  | < 1e-05 |  | < 1e-05 |
| G32C G37A | < 1e-05 | < 1e-05 |  |  | < 1e-05 |  |
